According to PubChem BioAssay AID1508624 (National Center for Advancing Translational Sciences (NCATS), 2021):
The whole screen tested about 48,000 compounds, of which about 120 (0.25%) were called active. Inconclusive results (about 4%) are left out. Calls come from the whole dose curve; as a rule, active = well fitted activation curve with a large enough effect; inconclusive = small, poorly fitted or top-dose-only effect, or another doubt; inactive = no such curve, though single readings can be large or run the other way. The list shows a part of the results.

test: Primary qHTS for Identification of Small Molecule Activators of Huntingtin-Antisense Promoter Activity; settings: HEK293 HTT-AS promoter firefly luciferase reporter (activity 0% = vehicle and -100% = no light), 24 h; series mostly up to 57.5 µM; activity change, positive = activation: at the top concentration; note: nearly all actives have a fitted effect of over 55% in size
Method in brief: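 Quantitative HTS used concentration series of up to 57.5 uM final on HEK293 luciferase reporter cells, 24 h at 37 degrees C. Readout was Dual-Glo firefly luminescence.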

Activity change, positive = activation, inactive:
Cc1ccc(-n2nc(C(=O)NC(C)C)c(=O)n(C)c2=O)cc1 -6.21%
COc1cc(Cl)c(C)cc1NC(=O)c1c(C)oc2nc(C)nc(N3CCCC3)c12 -2.69%
CCc1nnc(NC(=O)CSc2nccn2Cc2ccccc2)s1 -25.2%
O=C(Cn1c(-c2cccs2)cc2ccccc21)NCCCN1CCN(c2cccc(Cl)c2)CC1 -29.3%
O=C1CCCc2cc(S(=O)(=O)N3CCCC(C(=O)NCc4ccccc4Cl)C3)ccc2N1 (stereo unspecified) -32.6%
COC(=O)Cn1c(=O)c2c(nc3n2CCN3c2cccc(C)c2)n(C)c1=O -4.2%
CCCCc1ccc(NC(=O)c2cc3c(=O)n4ccccc4nc3n2C)cc1 -8.91%
COc1ccc2nc3sc(C(=O)Nc4ccccc4F)cc3cc2c1 23.7%
COc1ccc(NC(=O)CCCc2nc(-c3ccco3)no2)c(OC)c1 -23.4%
CCN(CC)S(=O)(=O)c1ccc(NC(=O)[C@H](CSCc2ccccc2)N2Cc3ccccc3C2=O)cc1 -0.0842%
COc1cccc(OC(=O)CSc2nnc(-c3ccccc3OC)o2)c1 -21.1%
O=c1cc(CN2CCN(S(=O)(=O)c3ccc(Cl)cc3)CC2)nc2sc(-c3ccccc3F)nn12 -12.7%
O=S(=O)(NCCc1ccccc1)c1ccc(N2CCCCS2(=O)=O)cc1 -24.2%
COc1ccc(C(=O)O)cc1Nc1nc2ccc(C)cc2n2cnnc12 -13.8%
NC(=O)CC[C@@H](N)C(=O)O 1.81%
Cc1cccc(NC(=O)c2sc3nc4n(c(=O)c3c2C)N=C(c2ccc(F)cc2)CS4)c1C -8.9%
Cc1ccc(C)c(N2CCN(c3nc4ccccc4c4nc(CCn5nc(C)cc5C)nn34)CC2)c1 13%
CO/N=C(\C(=O)N[C@@H]1C(=O)N2C(C(=O)O)=C(CSc3nc(=O)c(O)nn3C)CS[C@H]12)c1csc(N)n1 2.04%
O=C(CSc1nc(-c2ccc(Cl)cc2)nc2c1Cc1ccccc1O2)N1CCCCC1 19.3%
Cc1ccc(N2C(=O)CS(=O)(=O)C23C(=O)N(Cc2cccc(F)c2)c2ccccc23)cc1Cl (stereo unspecified) -29.9%
COc1ccc(Cl)cc1NC(=O)c1cc2nc(-c3ccc4c(c3)OCO4)cc(C(F)(F)F)n2n1 -2.5%
COc1cc(C2CC(=O)Nc3c2c(=O)[nH]c2nc4ccccc4n32)ccc1O (stereo unspecified) -11.1%
CC1(C)C(=O)N(CC(=O)Nc2ccc(Cl)cc2)c2ccccc21 -5.44%
CCC(C)NC(=O)c1cc2c(Cl)nc3ccc(C)cc3c2s1 (stereo unspecified) -4.71%
CCc1nn2c(=O)cc(COC(=O)c3ccccc3NC(=O)COc3ccccc3C)nc2s1 9.52%
COc1ccc(-c2nn3c(-c4ccc(OC)cc4)nnc3c3ccccc23)cc1 -5.96%
Cc1ccc2c(c1)cc(C(=O)Nc1ccccc1C)n2C -13.1%
O=C(c1ccco1)N(Cc1cccnc1)c1nc2ccc(F)cc2s1 15.7%
CCc1ccc(C2C(C(=O)Nc3ccccc3)=C(C)Nc3c(C(=O)Nc4ccc(C)cc4)cnn32)cc1 (stereo unspecified) -28.5%
CCc1ccc(S(=O)(=O)c2cn(C)c3cc(N4CCCCC4C)c(F)cc3c2=O)cc1 (stereo unspecified) -21.3%
COc1cc(OC)cc(-c2nc3n(n2)C(c2ccccc2F)C(C(=O)Nc2cccnc2)=C(C)N3)c1 (stereo unspecified) -24.6%
Cc1ccc(S(=O)(=O)NCC(c2ccc(N(C)C)cc2)N2CCCC2)cc1 (stereo unspecified) -12.9%
Cc1cc(C)cc(NC(=O)C2CCCN(c3nnc(C)c4c(C)n(-c5ccccc5)nc34)C2)c1 (stereo unspecified) -12.9%
CCOC(=O)Cn1c(=O)oc2cc(S(=O)(=O)N3CCN(c4ccc(Cl)cc4)CC3)ccc21 -17.2%
CCOC(=O)C1CCN(C(c2ccccc2)c2c(O)cc(C)n(Cc3ccco3)c2=O)CC1 (stereo unspecified) 1.82%
O=C(CSc1nccn1Cc1ccco1)Nc1cccc(F)c1 14.6%
CCc1c(C)c2ccc3c(c2oc1=O)CN(Cc1ccccc1)CO3 -21.9%
COc1ccc(OCC(=O)Nc2nnc(S(=O)(=O)N3CCCCCC3)s2)cc1 -7.66%
Cc1ccc(-n2c(CCC(=O)O)ccc2-c2cccs2)cc1C 14.3%
CCC(CC)C(=O)Nc1cccc(-c2nc3cccnc3s2)c1C -14.8%
COc1ccc(-n2nc3ccc(NC(=O)c4cc5ccccc5o4)cc3n2)cc1Cl -0.878%
COc1ccccc1-c1nc(S(=O)(=O)c2ccc(Cl)cc2)c(N2CCCCCC2)o1 -28.6%
CC1(C)O[C@H]2[C@@H](O1)[C@@H](C(=O)Nc1ccccc1O)O[C@@H]1OC(C)(C)O[C@@H]12 -12%
CCc1ccc(-c2nn(CC(=O)NC3CCCC3)c3c2cnc2ccc(C)cc23)cc1 -0.857%
CCOc1cc(C2C(C(=O)OC)=C(C)NC3=C2C(=O)c2ccccc23)ccc1O (stereo unspecified) -16.2%
O=C(Nc1ccc(N2CCC(N3CCCCC3)CC2)c(C(=O)O)c1)c1ccc(Br)cc1 0%
FC(F)(F)c1ccccc1-n1ccnc1 0.993%
Cc1cccc(/C=C/c2onc(C)c2S(=O)(=O)N2CCC(C(=O)N3CCC(C)CC3)CC2)c1 -10.3%
Cc1ccc(C(C)C)c(OCC(=O)Nc2c(C(=O)c3ccccc3)oc3ccccc23)c1 -4.2%
Cc1ccc(NC(=O)Cn2c(=O)n(Cc3ccccc3)c(=O)c3c(C)c(C)sc32)c(C)c1 8.92%
CCC(Cc1ccccc1)NC(=O)c1ccc2nc(N3CCC(C)CC3)sc2c1 (stereo unspecified) -71%
CCc1ccccc1NC(=O)C1=CC(c2ccc(OC)c(OC)c2)=NS(=O)(=O)N1C -26.7%
CCOC(=O)c1ccc(-n2c(N)c(C(=O)OC)c3nc4ccccc4nc32)cc1 -19.8%
Cc1cccc(C)c1OCC(=O)NCC1(N2CCOCC2)CCCCC1 -29.2%
COc1ccc(OC(=O)c2nc(SCc3ccc(C)cc3)ncc2Cl)cc1 -0.158%
O=C(CN1C(=O)COc2ccc(S(=O)(=O)N3CCCCC3)cc21)NCc1ccc(F)cc1 3.51%
Cc1ccc(-c2nc(C)c(CCNC(=O)C(=O)Nc3ccc4c(c3)OCCO4)s2)cc1 5.73%
CCOc1ccc(N(CC(=O)Nc2ccc(F)cc2F)S(=O)(=O)c2c(C)[nH]c(=O)[nH]c2=O)cc1 -12%
CN1C(=O)c2ccccc2Sc2ccc(NC(=O)Nc3ccccc3F)cc21 -15.9%
COc1ccc(CNC(=O)C(=O)NCC(c2cccs2)S(=O)(=O)c2ccc(F)cc2)cc1 (stereo unspecified) -34.4%
COc1ccc(CN(CCC(c2ccc3c(c2)OCO3)c2ccccc2OC)C(C)=O)cc1 (stereo unspecified) -31.5%
